Test results published in ChEMBL document CHEMBL4888484, “Replenishing the malaria drug discovery pipeline: Screening and hit evaluation of the MMV Hit Generation Library 1 (HGL1) against asexual blood stage Plasmodium falciparum ,using a nano luciferase reporter read-out” (2022).
Screen size: about 150,000 compounds; about 540 (0.36%) showed an effect of 50% or more. This is one part of the list.

Test system: Plasmodium falciparum
Assay: Primary screen in NF54 nanoGlo assay, in single point, at 2uM, 72h; a lower Z score goes with more inhibition
Assay type: functional, Erythrocyte
Conditions: timepoint 72 hour

| Structure (SMILES) | % Inhibition [%] | Z score |
| --- | --- | --- |
| C[C@@H](Cc1cccs1)NC(=O)C1(C2(O)CCNCC2)CCC1 | -6 | 0.67 |
| CC(C)COC(C)C(=O)N(C)C(C)C1CC1 (configuration not stated) | -4 | 0.31 |
| O=C(NCc1cccnc1N1CCOCC1)Nc1cc(C(F)(F)F)ccc1Cl | -2 | 0.27 |
| FC(F)Cn1cc(Nc2ccc(C(F)(F)F)cn2)cn1 | -12 | 1.17 |
| Cc1nc2nc(N3CCCCC3)sc2c(=O)[nH]1 | 36 | -4.04 |
| COC(=O)c1nc(NC(=O)c2c(C)noc2C)sc1C(C)C | -2 | 0.26 |
| COc1ccsc1C(=O)Nc1ccc2c(c1)C(=O)NCC2 | 8 | -0.91 |
| O=C(Nc1cccc2c1CCCC2)c1ccc(S(=O)(=O)N2CCOCC2)cc1 | -14 | 1.22 |
| Cc1cc(C(NCC2CCCS2(=O)=O)c2cccnc2)ccc1F (configuration not stated) | -6 | 0.88 |
| CC1CCC(C)N1C(C)c1nc(C2CCCN2S(C)(=O)=O)no1 (configuration not stated) | -12 | 1.58 |
| CC(C)n1cnnc1-c1nn(C)c2c1CN(C(=O)CCc1ccccc1)CC2 | -15 | 2.19 |
| CCOC[C@H]1CCCCN1c1ncnc2c1ncn2CC | 11 | -1.4 |
| COCC(COC)N1CCN(S(=O)(=O)N2CCCCCC2)CC1 | -4 | 0.79 |
| O=C(c1cnns1)N1CCOc2ccccc2[C@@H]1CO | -7 | 1.43 |
| CCn1cc(S(=O)(=O)N2CCn3c(nn(C)c3=O)[C@H]2c2ccccc2)cn1 | -6 | 0.99 |
| COc1ccc(C(=O)N2C[C@@H]3OCC(=O)N(Cc4cccnc4)[C@@H]3C2)cc1 | 22 | -2.56 |
| CCN(CC)CC(=O)Nc1ccc(OC2CCOCC2)c(C)c1 | -1 | 0.12 |
| CCc1nc(C)c(-c2nc(CC(N)=O)nn2C2Cc3ccccc3C2)s1 | 4 | -0.79 |
| CC=CCS(=O)(=O)[C@@H](C)C(=O)N1CCC(C)CC1 | -1 | 0.1 |
| CC(=O)c1ccc(NC(=O)N2CCCC3CN(C)CCC32)cc1 (configuration not stated) | -10 | 1.78 |
| Cc1nc2c(c(=O)n1C)CN(C(=O)c1nn(C)c(=O)c3ccccc13)C2 | -3 | 0.49 |
| CC(C)C(C(=O)O)N1CCC(NC(=O)C2(c3cccc(C#N)c3)CCC2)C1=O (configuration not stated) | 2 | -0.36 |

| Structure (SMILES) | % Inhibition [%] | Z score |
| --- | --- | --- |
| O=C(CCS(=O)(=O)c1ccc(Cl)cc1)Nc1nnc(-c2ccco2)o1 | -10 | 1.84 |
| O=C(CNCc1ccc(Cl)cc1)N1CCc2ccccc2C1 | -9 | 1.6 |
| COc1cc(NC(=O)Cn2cnc3c(-c4ccc(F)cc4)nsc3c2=O)cc(OC)c1 | -7 | 1.08 |
| COCC(=O)N[C@H](C(=O)NCC1CC1(C)C)C(C)C (some centres not stated) | -1 | 0.11 |
| O=C(O)COc1ccc(S(=O)(=O)Nc2ccccc2C(=O)NCCc2ccccc2)cc1Cl | 6 | -0.76 |
| Fc1ccc(CN2C[C@@H]3CC[C@H]2CNC3)c(F)c1F | -10 | 1.73 |
| O=C(O)[C@H]1CN(C(=O)Cc2ccccc2F)C[C@@H]1C1CC1 | 1 | -0.15 |
| CCc1nc(N)nc(N(C)C[C@H]2CCCCO2)c1C | -12 | 2.26 |
| N#Cc1nccnc1N1CC(n2cc(-c3ccccc3)nn2)C1 | -20 | 2.02 |
| CCOC(=O)c1c(C)[nH]c(CCC(=O)N2CCCCC2)c1C | -3 | 0.56 |
| Cc1cc(C)cc(OCC(=O)N[C@](C)(C#N)C(C)C)c1 | 2 | -0.22 |
| CNC(=O)c1cc(S(=O)(=O)N2CC(C)OC(C)C2)ccc1NCc1ccccc1 (configuration not stated) | 0 | -0.04 |
| Cc1ccc([C@H](CNC(=O)c2ccco2)N2CCCC2)o1 | -3 | 0.5 |
| Cc1cnn(CCC(=O)N2CCCC[C@@H]2CCN2CCCC2)c1 | -15 | 2.77 |
| O=C(Nc1ccc2c(c1)CCC2)[C@H]1CNC[C@@H](C(=O)NC2CCCCC2)C1 | -14 | 1.67 |
| CC(C)=C1CC[C@@H](C)CC1NCC(O)c1cnn(C)c1 (some centres not stated) | 0 | 0 |
| Cc1cc(C)n(C)c(=O)c1-c1nc([C@]2(c3ccc(F)cc3)CCOC2)no1 | 1 | -0.19 |
| CCc1ccc(NC(=O)Cn2c3c(c(=O)n4nc(-c5ccc(C)cc5)nc24)CCC3)cc1 | 14 | -1.73 |
| CC(C)c1nnsc1C(=O)N1CCC[C@H](CCc2ccc(F)cc2F)C1 | 11 | -1.37 |
| Cc1nn(CCCC(=O)NCc2ccc3c(c2)OCO3)c(=O)c2noc(C)c12 | 0 | -0.09 |
| O=C(Nc1ccc(Oc2ccccc2)cc1)c1cn(-c2ccc(F)cc2F)c(=O)c2ccccc12 | 20 | -2.34 |
| Nc1nonc1C(=O)N1CCCN(S(=O)(=O)c2cccs2)CC1 | 33 | -4.45 |

| Structure (SMILES) | % Inhibition [%] | Z score |
| --- | --- | --- |
| O=C(O)[C@H]1CCCN1CCCOCCc1ccccc1 | -8 | 0.65 |
| CC(CO)(CO)NC(=O)NCc1cc(F)cc(C(F)(F)F)c1 | -5 | 0.7 |
| Cn1ncc(Cl)c1S(=O)(=O)N1C[C@H](O)C(C)(C)C1 | -8 | 1.06 |
| CC(C)(C)n1cnc(C(=O)N2CCCC23CCCCC3)n1 | 0 | -0.06 |
| CN(CCCNC(=O)C1CCCC1)CC(F)(F)F | 2 | -0.31 |
| CC(C)(C)c1nnc(NCCOCc2ccccc2)o1 | -7 | 1.4 |
| C1CCc2c(CNC3C[C@@H]4CCCC[C@H]34)noc2C1 (some centres not stated) | 13 | -1.92 |
| CCN(CCCCO)CCOc1ccc(OC)cc1 | -3 | 0.51 |
| CCc1cccc2[nH]c(C(=O)N3CCNC[C@H]3C)cc12 | 22 | -2.73 |
| Cc1n[nH]c(CC(=O)N2CCO[C@@H](COCC3CC3)C2)n1 | 26 | -3.3 |
| CCCN1CCCN(CCOc2cccc(S(C)(=O)=O)c2)CC1 | -16 | 2.11 |
| Cn1cccc(C(=O)N[C@H]2CCOC[C@@H]2O)c1=O | -4 | 0.57 |
| CCCCc1nc(CN2CC[C@H](CNC(C)=O)[C@@H](O)C2)c[nH]1 | 8 | -1.08 |
| NC(=NOCC(=O)NCc1cccc(Cl)c1)c1cccnc1Oc1ccccc1 | 6 | -0.81 |
| Cc1nsc(N2CCC(CCCn3ccnc3)CC2)c1C#N | -17 | 3.34 |
| OC[C@@H]1CCCN(Cc2cc3n(n2)CCCC3)[C@@H]1C(F)(F)F | -9 | 1.32 |
| CN(C)c1ccc(NC(=O)C2CCC2)cc1CN(C[C@H]1CCCO1)C(=O)c1ccco1 | -2 | 0.36 |
| Cc1n[nH]c(C)c1CNc1cncc(F)c1 | -9 | 0.93 |
| NC[C@H]1Cc2cccc(-c3cccc(-n4cnnc4)c3)c2O1 | -10 | 1.24 |
| Cc1ccc(-c2nnc3n2CCOC3)o1 | 3 | -0.59 |
| COc1ccc(-c2csc(C3=C(O)CN(CCc4nc(C)cs4)C3=N)n2)cc1 | 6 | -0.7 |
| COCc1nc(CN2CCN(C(=O)OC(C)(C)C)C(C)C2C)cs1 (configuration not stated) | 2 | -0.24 |

| Structure (SMILES) | % Inhibition [%] | Z score |
| --- | --- | --- |
| O=C(CN1CCC[C@H]1c1nc2ccccc2s1)NCCc1c[nH]c2ccccc12 | -11 | 1.01 |
| COc1ccc(Cc2nc(-c3ccc4c(c3)ncn4CCC(=O)N3CCCC3)no2)cc1 | -12 | 1.68 |
| Cc1nc(N(C)C)sc1C(=O)N[C@@H](C)c1cc2ccccc2o1 | -6 | 0.74 |
| C=CCO[C@H]1[C@H](NC(=O)COC)c2ccccc2C12CCN(Cc1cccc(C)c1)CC2 | -15 | 2.34 |
| C[C@H](NC(=O)Nc1ccc(-n2cncn2)cc1C(F)(F)F)C(=O)NCC(F)(F)F | 11 | -1.36 |
| COc1ccc(Cl)cc1S(=O)(=O)N(CC(=O)N1CCNCC1)C1CCCCCC1 | -6 | 0.64 |
| CCC[C@H](N)C(=O)N(C)C1CCCCCC1 | -12 | 1.73 |
| CN(CC(=O)NC1CC1)c1nc2c(Cl)cccc2s1 | -10 | 1.56 |
| COC(=O)CC1=NN(c2nc(C)cc(C)n2)C(=O)C1 | -2 | 0.24 |
| CC1(C)CC[C@H](CS(=O)(=O)N2CCC=C(F)C2)OC1 | -2 | 0.47 |
| N#CCN1CCN(C2CC2)c2ccc(F)cc21 | -9 | 0.82 |
| O=C(Nc1ccc2c(c1)CCC2)N1CCC[C@H]1CO | 3 | -0.58 |
| c1ccc(CN2CC(c3nc(-c4cnccn4)no3)C2)cc1 | -15 | 2.88 |
| C[C@H](C(=O)NCCN1CCOCC1)C1CCN(C(=O)c2cc3ccccc3[nH]2)CC1 | -13 | 1.17 |
| COCc1nc(C)c(C(=O)NC(C)(C)CCCNC(=O)OC(C)(C)C)s1 | 1 | -0.19 |
| CNC(=O)COc1ccc(OCc2ccnc(N(C)C)c2)cc1 | -14 | 1.94 |
| C[C@@H](C(=O)N1CCOCCNC(=O)CC1)c1ccccc1 | -12 | 1.36 |
| Cc1ncccc1CNC(=O)N1Cc2ccccc2C[C@@H]1C | 4 | -0.51 |
| O=C1C[C@]2(CC2(c2ccccc2)c2ccccc2)C(=O)N1c1cccc(Br)c1 | 19 | -3.6 |
| COc1ccc(-c2n[nH]c(C3CC3)c2NC(=O)Nc2ccc(F)cc2F)cc1OC | -5 | 0.85 |
